This is an account of results in patent US7410975B2, “Small molecule toll-like receptor (TLR) antagonists” (Coley Pharmaceutical Group, Inc., priority 2003, dated 2008).

The structures appear in SMILES notation. Counter-ions that a name gives are not always drawn.

This assay addresses T1, human TLR3 (hTLR3) (Homo sapiens, UniProt O15455).
T1 construct: expressed in transfected cells
T1 sequence (O15455 24-904): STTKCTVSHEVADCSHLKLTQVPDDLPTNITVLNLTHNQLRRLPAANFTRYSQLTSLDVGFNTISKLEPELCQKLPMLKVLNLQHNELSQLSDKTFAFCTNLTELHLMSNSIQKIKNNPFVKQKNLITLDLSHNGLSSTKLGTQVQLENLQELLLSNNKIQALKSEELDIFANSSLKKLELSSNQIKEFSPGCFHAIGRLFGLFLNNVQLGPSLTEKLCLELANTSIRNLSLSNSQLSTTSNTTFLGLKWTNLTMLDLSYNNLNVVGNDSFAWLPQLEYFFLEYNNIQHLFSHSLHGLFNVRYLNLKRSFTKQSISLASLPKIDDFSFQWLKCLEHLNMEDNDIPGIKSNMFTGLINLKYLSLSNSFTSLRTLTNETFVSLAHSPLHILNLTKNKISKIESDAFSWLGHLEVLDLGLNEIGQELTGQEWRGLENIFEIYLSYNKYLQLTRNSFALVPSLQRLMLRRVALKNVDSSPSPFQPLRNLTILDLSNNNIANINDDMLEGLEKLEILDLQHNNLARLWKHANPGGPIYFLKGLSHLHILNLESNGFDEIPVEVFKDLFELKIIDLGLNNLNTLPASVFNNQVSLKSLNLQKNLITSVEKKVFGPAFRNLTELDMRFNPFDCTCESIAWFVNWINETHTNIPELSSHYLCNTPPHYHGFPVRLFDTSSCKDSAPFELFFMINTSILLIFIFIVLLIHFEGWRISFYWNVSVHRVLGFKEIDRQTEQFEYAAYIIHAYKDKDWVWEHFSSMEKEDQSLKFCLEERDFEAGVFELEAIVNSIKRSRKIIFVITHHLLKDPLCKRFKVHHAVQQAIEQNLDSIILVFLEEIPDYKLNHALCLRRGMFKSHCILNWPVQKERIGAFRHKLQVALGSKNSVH
Nature of the assay: Antagonist screen, hTLR3-NFκB-293 cells, NF-κB-luciferase reporter, with EC50 of poly(I:C). In kind it is cell-based. Conditions: compound at 0.5, 5, 50 μg/ml, EC50 concentration of poly(I:C), 16 h. As for the experimental part:
The method is described in greater detail as follows. The cells for each individual cell clone (hTLR3-NFκB-293, hTLR7-NFκB-293, hTLR8-NFκB-293 and hTLR9-NFκB-293) were counted and seeded one day before the stimulation at 1.5×10^4 cells per well in 96-well cell culture plates. To become adherent the cells were incubated after seeding overnight at 37° C. in 5% CO2 humidified air.
The screen for each compound was performed at the same time for all of the receptors TLR3, TLR7, TLR8 and TLR9. Up to fifteen test compounds, each assayed in duplicate at each of three different final concentrations (0.5 μg/ml, 5 μg/ml, and 50 μg/ml), were used for 16 h cell stimulation on a single multiwell culture plate. A 4× final concentration master plate was created to prepare the different test compounds before they were added to the cells.
Controls were added as duplicates individually for each cell clone on the cell culture plate. Positive controls were used as follows (final concentrations): 50 μg/ml poly(I:C) for hTLR3-NFκB-293; 8 μM resiquimod (R848) for hTLR7-NFκB-293; 30 μM R848 for hTLR8-NFκB-293; and 2.5 μM CpG-ODN 2006 for hTLR9-NFκB-293. Media alone was used as negative control. After addition of controls and small molecules, the cell clones were additionally stimulated with the EC50 concentration of the appropriate receptor-specific ligand. […]
The baseline result (measured with addition of the EC50 concentration of the receptor-specific ligand) for each cell culture plate was measured as described above. Antagonistic effects were measured by down regulation compared to the baseline. Antagonists were scored as follows: • 13: compounds for which there was clear down regulation at 0.5 μg/ml, 5 μg/ml, and 50 μg/ml; • 12: compounds for which there was clear down regulation at 5 μg/ml and 50 μg/ml; • 11: compounds for which there was clear down regulation only at 50 μg/ml; • —: compounds for which there was no clear down regulation even at 50 μg/ml. […]
Results were expressed as fold induction over baseline luciferase activity measured in the absence of poly(I:C). […]
As for `CN1CCN2c3ccccc3Cc3ccccc3C2C1.Cl` (stereo not drawn) [compound 99, Mianserinehydrochloride], the “hTLR3 (inhibitory effect, antagonist score)” value is 11 (compounds for which there was clear down regulation only at 50 μg/ml).
Next, `Cc1ccccc1C(OCCN(C)C)c1ccccc1` (stereo not drawn) [compound 239, Orphenadrinehydrochloride]: “— (compounds for which there was no clear down regulation even at 50 μg/ml)”.
To `CN1CCC[C@@H]1CCO[C@](C)(c1ccccc1)c1ccc(Cl)cc1.O=C(O)/C=C/C(=O)O` [compound 306, Clemastine fumarate] belongs 11 (compounds for which there was clear down regulation only at 50 μg/ml).
